Source: the supplement of paper PMC12217912
The other results are listed elsewhere or left out. Sequences were assembled here from the parent chain. Inactive controls read about 0.05.

B1: TEV protease; numbered along this chain (parent)
chain: MGESLFKGPRDYNPISSSICHLTNESDGHTTSLYGIGFGPFIITNKHLFRRNNGTLVVQSLHGVFKVKDTTTLQQHLVDGRDMIIIRMPKDFPPFPQKLKFREPQREERICLVTTNFQTKSMSSMVSDTSCTFPSGDGIFWKHWIQTKDGQCGSPLVSTRDGFIVGIHSASNFTNTNNYFTSVPKNFMELLTNQEAQQWVSGWRLNADSVLWGGHKVFMVKPEEPFQPVKEATQL

Variants of: B1
Experiment: raw area under fraction-flipped curve 0-4 h after induction (AUC4h, not background-subtracted), DNA-recorder readout of cleavage of the substrate (dimensionless); higher = more cleavage of the substrate by the protease variant
Settings: temperature: 34 °C; time window: 0-4 h after rhamnose induction
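Further: Bxb1 expression induced with 0.2% (w/v) L-rhamnose at OD600 near 0.5, cultures sampled hourly, flipped fraction per protease–substrate barcode pair counted by paired-end Illumina sequencing.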

Variant	area with substrate ENLFFQS	area with substrate ENLGFQS	area with substrate ENLHFQS	area with substrate ENLKFQS	area with substrate ENLNFQS	area with substrate ENLQFQS	area with substrate ENLRFQS	area with substrate ENLDFQS	area with substrate ENLEFQS	area with substrate ENLIFQS	area with substrate ENLLFQS	area with substrate ENLPFQS	area with substrate ENLSFQS	area with substrate ENLTFQS	area with substrate ENLVFQS	area with substrate ENLWFQS	area with substrate ENLMFQS
MGESLFKGPRDYNPISSSICHLTNESDGHTTSLYGIGFGPFIITNKHLFRRNNGTLVVQSLNGVFKVKDTTTLQQHLVDGRDMIIIRMPKDFPPFPQKLKFREPQREERICLVTTNFQTKSMSSMVSDTSCTFPSGDGIFWKHWIQTKDGQCGSPLVSTRDGFIVGIHSASNFTNTNNYFTSVPKNFMELLTNQEAQQWVSGWRLNADSVLWGGHKVFMVKPEEPFQPVKEATQL [H62N]	0.0768	0.0628	0.0711	0.0742	0.0686	0.0519	0.0751	–	–	–	–	–	–	–	–	–	–
MGESLFKGPRDYNPISSSICHLTNESDGHTTSLYGIGFGPFIITNKHLFRRNNGTLVVQSLHGVFKVKDTTTLQQHLVDGRDMIIIRMPKDFPPFPQKLKFREPQREERICLVTTNFQTKSMSSMVSDTSCTFPSGDGIFWKHWIQTKDGQCGSPLVSTRDGFIVGIHSASNFTNTNNYFTSVPKNFMELLTNQEAQQWVSGWRLNADSVLWGGHKVFMVKVEEPFQPVKEATQL [P222V]	0.0792	–	0.0584	0.0787	0.0758	0.0703	0.0717	0.0631	0.0669	0.058	0.0646	0.0601	0.0663	0.0561	0.088	0.0631	–
MGESLFKGPRDYNPISSSICHLTNESDGHTTSLYGIGFGPFIITNKHLFRRNNGTLVVQSLHGVFKVKDTTTLQQHLVDGRDMIIIRMPKDFPDFPQKLKFREPQREERICLVTTNFQTKSMSSMVSDTSCTFPSGDGIFWKHWIQTKDGQCGSPLVSTRDGFIVGIHSASNFTNTNNYFTSVPKNFMELLTNQEAQQWVSGWRLNADSVLWGGHKVFMVKPEEPFQPVKEATQL [P94D]	0.085	0.0634	0.0954	0.0753	0.0636	–	–	–	0.0616	–	–	0.0542	0.0715	–	0.116	–	0.0686
MGESLFKGPRDYNPISSSICHLTNESDGHTTSLYGIGFGPFIITNKHLFRRNNGTLVVQSLHGVFKVKDTTTLQQHLVDGRDMIIIRMPKDFPPFPQKLKFREPQREPRICLVTTNFQTKSMSSMVSDTSCTFPSGDGIFWKHWIQTKDGQCGSPLVSTRDGFIVGIHSASNFTNTNNYFTSVPKNFMELLTNQEAQQWVSGWRLNADSVLWGGHKVFMVKPEEPFQPVKEATQL [E108P]	0.0569	–	0.0617	0.0622	0.0361	–	0.0636	–	0.0781	0.0615	–	0.0756	0.0468	0.052	–	–	–
MGESLFKGPRDYNPISSSICHLTNESDGHTTSLYGIGFGPFIITNKHLFRRNNGTLVVQSLHGVFKVKDTTTLQQHLVDGRDMIIIRMPKDFPPFPQKLKFREPQREERICLVTTNFQTKSMSSMVSDTSCTFPSGDGIFWKHWIQTKDGQCGSPLVSTRDGFIVGIHSASNFTNTNNYFTSVPKNFMELLTNQEAQQWVSGWELNADSVLWGGHKVFMVKPEEPFQPVKEATQL [R204E]	0.0872	–	–	0.0938	0.0663	0.0684	0.0788	0.0664	–	–	–	0.0692	0.0635	–	–	–	0.0762
MGESLFKGPRDYNPISSSICHLTNESDGHTTSLYLIGFGPFIITNKHLFRRNNGTLVVQSLHGVFKVKDTTTLQQHLVDGRDMIIIRMPKDFPPFPQKLKFREPQREERICLVTTNFQTKSMSSMVSDTSCTFPSGDGIFWKHWIQTKDGQCGSPLVSTRDGFIVGIHSASNFTNTNNYFTSVPKNFMELLTNQEAQQWVSGWRLNADSVLWGGHKVFMVKPEEPFQPVKEATQL [G35L]	0.0714	–	–	–	0.0389	–	–	–	–	–	–	0.0466	–	–	0.0401	0.0511	–
MGESLFKGPRDYNPISSSICHLTNESDGHTTSLYMIGFGPFIITNKHLFRRNNGTLVVQSLHGVFKVKDTTTLQQHLVDGRDMIIIRMPKDFPPFPQKLKFREPQREERICLVTTNFQTKSMSSMVSDTSCTFPSGDGIFWKHWIQTKDGQCGSPLVSTRDGFIVGIHSASNFTNTNNYFTSVPKNFMELLTNQEAQQWVSGWRLNADSVLWGGHKVFMVKPEEPFQPVKEATQL [G35M]	0.0567	–	–	–	–	–	–	–	–	–	–	–	–	–	–	–	–
MGESLFKGPRDYNPISSSICHLTNESDGHTTSLYGIGFGPFIITNKHLFRRNNGTLVVQSLHGVFKVKDTTTLQQHLVDHRDMIIIRMPKDFPPFPQKLKFREPQREERICLVTTNFQTKSMSSMVSDTSCTFPSGDGIFWKHWIQTKDGQCGSPLVSTRDGFIVGIHSASNFTNTNNYFTSVPKNFMELLTNQEAQQWVSGWRLNADSVLWGGHKVFMVKPEEPFQPVKEATQL [G80H]	0.0818	–	–	0.0865	0.0629	0.0767	0.0901	–	0.0666	–	0.0728	0.056	–	0.0756	–	–	0.119
MGESLFKGPRDYNPISSSICHLTNESDGHTTSLYGIGFGPFIITNKHLFRRNNGTLVVQSLHGVFKVKDTTTLHQHLVDGRDMIIIRMPKDFPPFPQKLKFREPQREERICLVTTNFQTKSMSSMVSDTSCTFPSGDGIFWKHWIQTKDGQCGSPLVSTRDGFIVGIHSASNFTNTNNYFTSVPKNFMELLTNQEAQQWVSGWRLNADSVLWGGHKVFMVKPEEPFQPVKEATQL [Q74H]	0.0722	–	–	–	0.0529	0.0647	0.0688	–	–	–	–	0.0319	0.0697	–	–	0.0855	0.0638
MGESLFKGPRDYNPISSSICHLTNESDGHTTSLYGIGFGPFIITNKHLFRRNNGTLVVQSLHGVFKVKDTTTLQQHLVDGRDMIIIRMPKDFPPFPQKLKFREPTREERICLVTTNFQTKSMSSMVSDTSCTFPSGDGIFWKHWIQTKDGQCGSPLVSTRDGFIVGIHSASNFTNTNNYFTSVPKNFMELLTNQEAQQWVSGWRLNADSVLWGGHKVFMVKPEEPFQPVKEATQL [Q105T]	0.0817	–	0.0679	0.0839	–	0.0681	0.0665	–	0.0556	0.073	0.0684	0.0699	–	–	–	–	–
MGESLFKGPRDYNPISSSICHLTNESDGHTTSLYGIGFGPFIITNKHLFRRNNGTLVVQSLHGVFKVKDTTTLQQHLVDGRDMIIIRMPKDFPPFPQKLKFREPQREERICLVTTNFQTKSMSSMVSDTSCTFPSGDGIFWKHWIQTKDGQCGSPLVSTRDHFIVGIHSASNFTNTNNYFTSVPKNFMELLTNQEAQQWVSGWRLNADSVLWGGHKVFMVKPEEPFQPVKEATQL [G162H]	0.0765	0.0765	0.0516	0.0779	0.0456	0.0606	0.0544	–	0.055	0.0714	0.0665	0.0532	–	–	–	–	0.0701
MGEELFKGPRDYNPISSSICHLTNESDGHTTSLYGIGFGPFIITNKHLFRRNNGTLVVQSLHGVFKVKDTTTLQQHLVDGRDMIIIRMPKDFPPFPQKLKFREPQREERICLVTTNFQTKSMSSMVSDTSCTFPSGDGIFWKHWIQTKDGQCGSPLVSTRDGFIVGIHSASNFTNTNNYFTSVPKNFMELLTNQEAQQWVSGWRLNADSVLWGGHKVFMVKPEEPFQPVKEATQL [S4E]	0.108	–	0.0801	0.0798	0.0719	–	0.0766	–	0.0825	–	–	–	0.0697	–	–	0.0736	–
MGESLFKGPRDYNPISSSICHLTNESDGHTTSLYGIGFGPFIITNKHLFRRNNGTLVVQSLHGVFKVKDTTTLQQHLVDGRDMIIIRMPKDFPPFPQKLKFREPQREERICLVTTNFQTKSMSSMVSDTSCTFPSGDGIFWKHWIQTKDGQCGSPLVSTRDGFIVGIHSASNFTNTNNYFTSVPKNFMELLTNQEAQQWVSGWRNNADSVLWGGHKVFMVKPEEPFQPVKEATQL [L205N]	–	–	–	–	0.0684	–	–	0.0646	0.0626	0.0694	0.0632	–	0.0621	–	–	–	0.0789
MGESLFKGPRDYNPISSSICHLTNESDGHTTSLYGIGFGPFIITNKHLFRRNNGTLVVQSLHGVFKVKDTTTLQQHLVDGRDMIIIRMPKDFPPFPQKLKFREPQREERICLVTTNFQTKSMSSMVSDTSCTFPSGDGIFWKHWIQTKDGQCGSPLVSTRDGFIVGIHSASNFTNTNNYFTSVPKNFMELLTNQEAQQWVSGWRFNADSVLWGGHKVFMVKPEEPFQPVKEATQL [L205F]	0.104	–	–	–	0.0788	–	–	–	0.0513	–	0.0475	0.0522	–	–	0.0757	–	–
MGESLFKGPRDYNPISSSICHLTNESDGHTTSLYGIGFGPFIITNKHLFRRNNGTLVVQSLHGVFKVKDTTTLQQHLVDGRDMIIIRMPKDFPPFPQKLKFREPQREERICLVTTNFQTKSMSSMVSDTSCTFPSGDGIFWKHWIQTKDGQCGSPLVSTRDGFIVGIHSASNFTNTNNYFTSVPKNFMELLTNQEAQQWVSGWRLNADSVLWSGHKVFMVKPEEPFQPVKEATQL [G213S]	0.0597	0.0717	–	0.0685	0.0427	–	0.0692	–	0.0761	–	–	0.0593	0.0579	–	0.0581	–	–
MGESLFKGPRDYNPISSSICHLTNESDGHTTSLYGIGFGPFIITNKHLFRRNNGTLVVQSLHGVFKVKDTTTLQQHLVDGRDMIIIRMPKDFPPFPQKLKFREPQREERICLVTTNFQTKSMSSMVSDTSCTFPSGDGIFWKHWIQTKDGQCGSPLVSTRDGFIVGIHSASNFTNTNNYFTSVPKNFMELLTNQEAQQWVSGRRLNADSVLWGGHKVFMVKPEEPFQPVKEATQL [W203R]	0.064	0.0579	0.0666	0.0841	0.0623	0.073	–	0.0499	–	0.0504	0.0645	0.0637	0.0659	–	–	0.066	0.0662
MGESLFKGPRDYNPISSSICHLTNESDGHTTSLYGIGFGPFIITNKHLFRRNNGTLVVQSLHGVFKVKDTTTLQQHLVDGRDMIIIRMPKDFPPFPQKLKFREPQREERICLVTTNFQTKSMSSMVSDTSCTFPSGDGIFWKHWIQTKDGQCGSPLVSTRDGFIVGIHSASNFTNTNNYFTSVPKNFMELLTNQEAQQWVSGWRLNADSVLWGGHKVFMVKPEEWFQPVKEATQL [P225W]	0.101	–	–	0.0728	–	0.0776	0.0458	0.0812	0.0735	–	0.0649	0.0667	0.051	0.0728	0.0548	0.0482	0.0581
MGESLFKGPRDYNPISSSICHLTNESDGHTTSLYGIGFGPFIITNKHLFRRNNGTLVVQSLHGVFKVKDTTTLQQHLVDGRDMIIIRMPKDFPPFPQKLKFREPQREERICLVTTNFQTKSMSSMVSDTSCTFPSGDGIFWKHWIQTKDGQCGSPLVSTRDGFIVGIHSASNFTNTNNYFTSVPKNFMELLTNQEAQQWVSGWRLNADSVLWGGGKVFMVKPEEPFQPVKEATQL [H215G]	0.061	0.0744	0.0644	0.0466	0.0694	0.0655	–	0.0662	0.0709	0.0505	0.0533	0.02	–	0.0391	0.0952	0.0552	–
MGESLFKGPRDYNPISSSICHLTNESDGHTTSLYGIGFGPFIITNKHLFRRNNGTLVVQSLHGVFKVKDTTTLQQHLVDGRDMIIIRMPKDFPPFPQKLKFREPQREERICLVTTNFQTKSMSSMVSDTSCTFPSGDGIFWKHWIQTKDGQCGSPLVSTRDGFIVGIHSASNFTNTNNYFTSVPKNFMELLTNQEAQQWVSGWRLNADSVLWGGHKVFMVKPFEPFQPVKEATQL [E223F]	0.0753	–	0.0564	0.0622	0.062	0.0639	0.0421	0.0465	0.0675	0.0628	0.0538	0.0262	–	–	–	–	–
MGESLFKGPRDYNPISSSICHLTNESDGHTTSLYGIGFGPFIITNKHLFRRNNGTLVVQSLHGVFKVKDTTTLQQHLVDGRDMIIIRMPKDFPPFPQKLKFREPQREERICLVTTNFQTKSMSSMVSDTSCTFPSGDGIFWKHWIQTKDGQCGSPLVSTRDGFIVGIHSASNFTNTNNYFTSVPKNFMELLTNQEAQQWVSGWRLNADSGLWGGHKVFMVKPEEPFQPVKEATQL [V210G]	0.0383	0.0825	–	–	0.0583	0.0572	0.0655	0.0644	0.0669	0.0571	0.0738	0.0612	0.0499	–	–	–	–
